Data published in the supplement of paper PMC11417369.
This is one part of the list.

The sequences below were run on PfHDP1 homeodomain (GST-tagged) (assay: gcPBM binding intensity (ln(normalized median fluorescence intensity)); higher = stronger DNA binding).
Outline: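 Binding intensity values are the highest Masliner-normalised natural-log median intensity among replicate spots of either probe orientation. The binding step lasted 1 h in 1× PBS with 1% milk, 0.2 mg/ml BSA, 0.5% salmon testes DNA and 0.03% Triton X-100, using GST-tagged P. falciparum DNA-binding domains expressed in E. coli on an Agilent 4 × 180k array of primer-extended double-stranded 36-bp intergenic genomic probes plus negative controls. Alexa488 anti-GST antibody and a 488 nm scan detected bound protein.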

Sequence | gcPBM binding intensity (ln)
TAACTTAATATTAATGCACACAATTTATATATATAT [CACACA_site3903] | 10.4
TCAAATATTCATAAATGTACATTTATTTTTCTCCTT [XGTACX_site5827] | 6.49
AGTAGAATATCCCCTACACACCCAAATAATTTACAA [CACACA_site8339] | 7.27
GAAACATACATTTTTTGTCCGTAAGTATTATAATAA [XGTACX_site3273] | 6.38
ATACATCAAGGACACACACACACACCCACACCCACA [CACACA_site8013] | 6.71
CTATATAAAAAAATTGCACACATAAATATATACATA [CACACA_site8325] | 9.87
ATAAATCCCAAAACCTTGCAAGACAACGTTTGATCA [CACACA_negctrl_site1327] | 6.57
TGTAGAAGAACCCATGCATGCAGTATGAAAAAAAAA [TGCATGCA_site907] | 6.73
AAAAAAAGAAAAAAACGTACATGAAAATTTTTTGTT [XGTACX_site5135] | 6.88
ATCTCTTACATATTCACACACATATAAATAACTACA [CACACA_site6816] | 7.4
ATTAATAATTATTATGGTACACATGTAACTACTCTC [XGTACX_site198] | 6.69
ATATGATAGTTTATATGTACATAAATAAATACATAC [XGTACX_site2917] | 6.4
AAAGAAAAAAAATAATGTACATATGTATTTGAGAAA [XGTACX_site3571] | 6.92
AAAAAAATAAAACACATACATATATGTATATATATA [GTGCAC_negctrl_site390] | 7.81
TTCTAAAATTATATAGTGCAATTATTTTATTTTTCT | 9.71
TAAATATATATATAAGTGCATTATATATATATATAA | 9.53
TACTTTCACATTAAATGTACGTATAGTTTCATTCTT [XGTACX_site8528] | 6.73
ATATTAAAAATATATACACACATATATATAAATATA [CACACA_site2257] | 6.44
ATAAATATGGAGCACACACACATAAACATACAGATA [CACACA_site4395] | 7.22

Sequence | gcPBM binding intensity (ln)
TATATTTAAGTACATAAATAAGCCCATTTACATACA [CACACA_negctrl_site1224] | 6.25
TTTGGAGAATTCATAGTGCATTTATTTATTGTTAAT | 7.83
ACGTTAGGCTTATTTGCACACTTGTATTATAATTTT [CACACA_site1317] | 10.3
AAAAATATGAAAGTAACTAAGTTGTTATTGATAACA [CACACA_negctrl_site1608] | 6.1
ATATTATCACAAGGTGGTACACAAAAAAAAAAAAAA [XGTACX_site8224] | 6.4
CATATACATAGACACACACACACATAAATAAATATA [CACACA_site6749] | 6.92
TTTCCTGGTCAAGGGGTTACGGTTACGTCCTCTTGC [CACACA_negctrl_site856] | 5.78
TTATGTATTTATTTATGTACTAATTGTATGCATATT [XGTACX_site6436] | 6.4
ATACTTTATAAATACTAAAGTGTATTTTGTAATATA [CACACA_negctrl_site1710] | 6.32
ATTTGTATATATAATTGTACGCATATTCTATACGAT [XGTACX_site7367] | 6.35
TAAGTGATCGCATAATGTACATATTATTTATTATTT [XGTACX_site3061] | 6.42
CATACATACATACATACACACATATATAAATATATG [CACACA_site7028] | 7.49
GGAAGGATATAACATACACACACACCCATATATATA [CACACA_site9376] | 7.04
TACATTTAAAAAAAAACACACATATTTATATTTATA [CACACA_site7236] | 6.04
ATACATTCTAATACGTGTACATATATATATATATAT [XGTACX_site1881] | 9.49
AATAATATTAACACACGTACAAAAGCAAACAACCAA [XGTACX_site7410] | 7.16
TTTATATTATTATATCTTATTAATTATTTATCATTT [TGCATGCA_negctrl_site73] | 6.23
ATAAAACAAAAACACACACACATACACAAAAAAAAA [CACACA_site3848] | 6.94
GGAGACTTTGTACAAACACACACATGAACACAATAT [CACACA_site8376] | 7.26

Sequence | gcPBM binding intensity (ln)
TCTTCACCACGTGGAAGTACATAAAAAGATACACAA [XGTACX_site4747] | 6.77
TTTTAATATATAGAGTAACAAATTTGTCTATTAATA [CACACA_negctrl_site1495] | 6.6
ATGTATATATTTATGTGTACTTAAATTTTTTTTTGT [XGTACX_site8179] | 6.07
TAATTTAAAAATGAACATATATATGTATGTAAATAT [TGCATGCA_negctrl_site135] | 7.16
CATCTTAAATAAGAACGTACATTTTTTTTGATGAGA [XGTACX_site3462] | 6.16
AAGACAAAACAAAGAAGTACATATATATATATATAT [XGTACX_site4067] | 9.36
ATATATATATAATATTGTACATAGTAGACATCACAC [XGTACX_site4649] | 8.43
TCTTATTATAAAAGGAGTACATCAATTAGATGTTCC [XGTACX_site8465] | 6.07
CAAAGCATAGTATGATGTACAAATGTTCCTATAATA [XGTACX_site8642] | 6.54
TTATGTTTATACACTACACACATTATTCATAAAAAA [CACACA_site4637] | 7.19
TAAAATATGGAAATCACACATTTATTAAAATATATA [CACACA_site4623] | 6.01
TATACCACCCGATATACACACTTGTAGACATCTTTT [CACACA_site4268] | 6.76
TATGGGTTTATATAGGTGCAATATATGTATATATAA | 9.53
TATATAGTTTATATTTGTACATATAGACATTTATAA [XGTACX_site6414] | 6.21
ACAAAACTCTTTAATTGTACAAATATAATATAAAAA [XGTACX_site5690] | 6.55
AGCAATATTTATTAAAGTACGTAAAAAAAATTCTCA [XGTACX_site6550] | 5.98
AACCATTGGGAAAGGGTGCACATATATATATATATA | 9.67
TGATGCAAAATATATACACACATATATATATATATA [CACACA_site3052] | 9.4
GATTATATATTAAAAAGTACTTTATAAATACTTCTA [XGTACX_site8992] | 6.31
